Source: PubChem BioAssay (NCI)
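Dose response: 5 concentrations. Exposure: 48 h. Format: 96-well plates. Endpoint: linear interpolation; highest concentration if not reached. GI50 is the concentration that inhibits growth by half.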 Some entries of the source have several records that differ or are many. They are shown here; other results are not. An entry can have further records. For some assays here: A record mostly stands for its own series of concentrations, not given here; a value can be the end of its range.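 TGI: total growth inhibition.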 For some assays here: Results that share an entry are repeated measurements in other runs, samples, wells, individuals or studies. What stands in brackets tells the records apart. Letters count within one entry.

What was measured:
Assay in all cases: NCI tumour cell line growth inhibition, 48 h
[1] = test system: ACHN renal
[2] = test system: DMS 114 small cell lung
[3] = test system: HCC-2998 colon
[4] = test system: HL-60(TB) leukemia
[5] = test system: HS 578T breast
[6] = test system: KM12 colon
[7] = test system: NCI-H460 lung
[8] = test system: NCI-H522 lung
[9] = test system: SF-295 CNS
[10] = test system: SK-MEL-5 melanoma
[11] = test system: TK-10 renal
[12] = test system: HCT-15 colon
[13] = test system: NCI-H23 lung
[14] = test system: OVCAR-4 ovarian
[15] = test system: U251 CNS
[16] = test system: UACC-62 melanoma
[17] = test system: UO-31 renal
[18] = test system: A498 renal
[19] = test system: HOP-92 NSCLC
[20] = test system: CAKI-1 renal
[21] = test system: CCRF-CEM leukemia
[22] = test system: MOLT-4 leukemia
[23] = test system: P388 leukemia
[24] = test system: RPMI-8226 leukemia
[25] = test system: SF-268 CNS
[26] = test system: SNB-78 CNS

With `CCCCCCCCCCCCCC(=O)O[C@H]1CC[C@H](NC(=O)[C@H](OC)[C@H](O)[C@@H](O)[C@H](O)/C=C/C(C)C)C(=O)NC1` the TGI [1] was 16.7 µM and 1.46 µM, the TGI [2] was 8.72 nM and 7.19 µM and the TGI [3] was 836 nM, 1.09 µM, 8.15 µM, 13.8 µM. The TGI [4] was 4.09 µM, 6.04 µM, 336 nM, the TGI [5] was 51.2 µM and 3.78 µM and the GI50 [6] was 166 nM and < 1 nM. For the same molecule, the TGI [7] was 1.01 µM, 6.8 µM, 11.5 µM, the TGI [8] was 868 nM, 2.83 µM, 11.1 µM and the TGI [9] was 7.66 µM and 655 nM. The GI50 [10] was 298 nM and 8.73 nM and the TGI [11] was 760 nM, 18.4 µM, 423 nM.

For `O=c1cc(-c2cccc(C(F)(F)F)c2)[nH]c2cc3c(cc12)OCO3`, the TGI [3] was 22 µM and 2.16 µM, the TGI [12] was 3.46 µM and > 100 µM and the TGI [13] was 50 µM and 747 nM. The TGI [14] was 50 µM and 3.92 µM, the TGI [15] was 50 µM and 412 nM and the TGI [16] was 4.68 µM and > 100 µM. The TGI [17] was 50 µM and 2.05 µM.

In the case of `CCC(C)(C)C(=O)O[C@H]1C[C@@H](C)C=C2C=C[C@H](C)[C@H](CC[C@@H]3C[C@@H](O)CC(=O)O3)[C@H]21`, the TGI [18] is reported as 7.53 µM [sample A] and 595 nM [sample B], the TGI [19] is reported as < 3 nM [sample A] and 265 nM [sample B] and the TGI [16] is reported as 898 nM [sample A] and 13.3 µM [sample B].

`CC1=C(C)C(=O)O[C@@H]([C@](C)(O)[C@]2(O)CC[C@@]3(O)[C@@H]4C[C@H]5O[C@]56[C@@H](O)C=CC(=O)[C@]6(C)[C@H]4CC[C@]23C)C1` was tested, and the TGI [20] was 44.5 nM and 2.69 µM, the TGI [21] was 798 nM and 26.5 µM and the TGI [4] was 228 nM [1 test] and 8.09 µM [mean of 2 tests]. For the same molecule, the TGI [22] was 281 nM [1 test] and 10.2 µM [mean of 3 tests], the TGI [23] was 1.3 µM and 33.4 µM and the TGI [24] was 742 nM and 12.8 µM. The TGI [25] was 27.2 µM and 1.07 µM and the TGI [26] was 67.5 µM and 5.11 µM.
